Results on 115 sequences are retold here after the BET-seq Pho4 binding data (Le et al. 2018).

The list shows a part of the results. These are noisy estimates, calculated here from bound and input reads.

This experiment addresses T1, Pho4 (S. cerevisiae) (UniProt P07270).
T1 sequence: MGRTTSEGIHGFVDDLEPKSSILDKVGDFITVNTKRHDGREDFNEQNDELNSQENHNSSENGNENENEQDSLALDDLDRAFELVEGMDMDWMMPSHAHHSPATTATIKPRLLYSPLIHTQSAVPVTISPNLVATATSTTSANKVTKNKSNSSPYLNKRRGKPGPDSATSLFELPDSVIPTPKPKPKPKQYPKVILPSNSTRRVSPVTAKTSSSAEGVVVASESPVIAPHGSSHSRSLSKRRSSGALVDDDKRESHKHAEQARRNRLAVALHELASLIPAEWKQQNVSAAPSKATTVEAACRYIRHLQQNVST
Kind of experiment: relative binding free energy (BET-seq); higher = weaker binding. The following applies: reference: library average.
TAGTTCACGTGCGTTT: the “relative binding free energy” value came out at 1.3 kJ/mol.

Take TGGACCACGTGGCTGG: the “relative binding free energy” value is -0.586 kJ/mol.

As to TGTAGCACGTGTCTTT, the “relative binding free energy” value is 0.126 kJ/mol.

As for TGGTCCACGTGGGCAT, the “relative binding free energy” value is -0.502 kJ/mol.

As to GGTTTCACGTGCTATG, the “relative binding free energy” value is 1.21 kJ/mol.

Regarding CCGGGCACGTGTGGGG, the “relative binding free energy” value is -0.0837 kJ/mol.

Turning to TAAGGCACGTGGTCTG, the “relative binding free energy” value was -1.3 kJ/mol.

In the case of CTGGGCACGTGGCGGA, the “relative binding free energy” value was -0.586 kJ/mol.

Turning to TGGAGCACGTGAGGTC, the “relative binding free energy” value came out at 0.92 kJ/mol.

As to ATCTGCACGTGTAATT, the “relative binding free energy” value is 0.753 kJ/mol.

For the sequence TTGATCACGTGTTGGA, the “relative binding free energy” value worked out at 0.502 kJ/mol.

As to CGGTTCACGTGTGAGT, the “relative binding free energy” value was determined as 1.26 kJ/mol.

In the case of GGAGGCACGTGTGGAG, the “relative binding free energy” value amounted to 0.0418 kJ/mol.

Turning to ATACGCACGTGGGTGA, the “relative binding free energy” value is -1.46 kJ/mol.

As for AAGGTCACGTGATAAT, the “relative binding free energy” value came to 0.962 kJ/mol.

Regarding TAGTACACGTGAGAAG, the “relative binding free energy” value was 1.92 kJ/mol.

Regarding GGAGTCACGTGATAAG, the “relative binding free energy” value came to 1.42 kJ/mol.

In the case of TTATCCACGTGGATTT, the “relative binding free energy” value came out at 0.418 kJ/mol.

In the case of GGGGCCACGTGCTAGG, the “relative binding free energy” value is -0.837 kJ/mol.

Turning to AGCGGCACGTGGAAGG, the “relative binding free energy” value turned out to be 0.335 kJ/mol.

With GTGACCACGTGGATGT, the “relative binding free energy” value is 0.418 kJ/mol.

For the sequence CTTCTCACGTGGATGT, the “relative binding free energy” value is 0.92 kJ/mol.

As for ATGGACACGTGGTTTA, the “relative binding free energy” value is -0.293 kJ/mol.

As for GCTGGCACGTGGCGTG, the “relative binding free energy” value is -0.628 kJ/mol.

Regarding TTGTGCACGTGTGGGC, the “relative binding free energy” value is -0.167 kJ/mol.

As for ATTTGCACGTGGGATT, the “relative binding free energy” value is -0.293 kJ/mol.

In the case of TAGATCACGTGGAAGG, the “relative binding free energy” value stood at 1.09 kJ/mol.

GTATTCACGTGGCGCG: the “relative binding free energy” value was 1.38 kJ/mol.

As for AGGCGCACGTGAGAGG, the “relative binding free energy” value came out at 0.753 kJ/mol.

For the sequence CGGTGCACGTGAAGTG, the “relative binding free energy” value came out at 1.55 kJ/mol.

In the case of ATTCTCACGTGGAGAT, the “relative binding free energy” value amounted to 1.09 kJ/mol.

With ACAGGCACGTGTGAGG, the “relative binding free energy” value turned out to be 0.46 kJ/mol.

As for GGATACACGTGTACTG, the “relative binding free energy” value is 1.34 kJ/mol.

On to CCATGCACGTGGGGTT, for which the “relative binding free energy” value is -0.753 kJ/mol.

As to GTTTGCACGTGATGTG, the “relative binding free energy” value turned out to be 0.962 kJ/mol.

As to TAAATCACGTGGGAAT, the “relative binding free energy” value came out at 0.544 kJ/mol.

On to TAACACACGTGGGGTT, for which the “relative binding free energy” value was -0.293 kJ/mol.

Consider GTACGCACGTGGGAGT, for which the “relative binding free energy” value is -0.879 kJ/mol.

For the sequence TTTTACACGTGGTAGG, the “relative binding free energy” value is 0.0837 kJ/mol.

As for GATGTCACGTGTAGTT, the “relative binding free energy” value was 0.879 kJ/mol.

As for TATAGCACGTGTTACG, the “relative binding free energy” value is -0.335 kJ/mol.

For GTATACACGTGTTTGG, the “relative binding free energy” value is 0.502 kJ/mol.

As to AGGTACACGTGGGTGT, the “relative binding free energy” value was -0.0837 kJ/mol.

Turning to TAGTACACGTGGTAGA, the “relative binding free energy” value is -0.126 kJ/mol.

GGCGCCACGTGGTGGA: the “relative binding free energy” value was -0.711 kJ/mol.

As to AGATACACGTGGTTGT, the “relative binding free energy” value came out at 0.167 kJ/mol.

Take TTTGGCACGTGGGCTG: the “relative binding free energy” value was -0.586 kJ/mol.

CTTGTCACGTGTGTGC: the “relative binding free energy” value amounted to 0.418 kJ/mol.

As for TCTGTCACGTGTGGAT, the “relative binding free energy” value was 1.09 kJ/mol.

As for AAAGGCACGTGGGGTG, the “relative binding free energy” value is -1.05 kJ/mol.

On to GGTTACACGTGGGGAA, for which the “relative binding free energy” value is 0.293 kJ/mol.

For the sequence AATCGCACGTGCTGGG, the “relative binding free energy” value was -0.209 kJ/mol.

As to TATATCACGTGGTATA, the “relative binding free energy” value was -0.293 kJ/mol.

Regarding GTGTGCACGTGGCTGA, the “relative binding free energy” value is -0.46 kJ/mol.

With TCATGCACGTGTAATT, the “relative binding free energy” value was 0.586 kJ/mol.

With GTGGACACGTGGGCCG, the “relative binding free energy” value was -0.837 kJ/mol.

For TTCGTCACGTGATGTA, the “relative binding free energy” value was found to be 0.753 kJ/mol.

For AAGGGCACGTGGTTCT, the “relative binding free energy” value was -0.335 kJ/mol.

As for CGGCACACGTGTGGTA, the “relative binding free energy” value is 0.335 kJ/mol.

With AGTTTCACGTGAAGAT, the “relative binding free energy” value turned out to be 0.879 kJ/mol.

Regarding TGTAACACGTGTGGGG, the “relative binding free energy” value is -0.0418 kJ/mol.

GTGGCCACGTGCGGGT: the “relative binding free energy” value is -0.628 kJ/mol.

With TCATTCACGTGTGTTC, the “relative binding free energy” value is 1.13 kJ/mol.

For the sequence GAGGTCACGTGCGTTT, the “relative binding free energy” value amounted to 0.962 kJ/mol.

Turning to GTAAGCACGTGGAGGG, the “relative binding free energy” value is -0.167 kJ/mol.

Regarding TCAGGCACGTGTGCTG, the “relative binding free energy” value was -0.0418 kJ/mol.

In the case of GCTGACACGTGTTGTG, the “relative binding free energy” value was -0.46 kJ/mol.

As to GTAAACACGTGGGTAG, the “relative binding free energy” value was -0.126 kJ/mol.

In the case of ATAGTCACGTGAGATT, the “relative binding free energy” value came to 1.3 kJ/mol.

For the sequence ATGACCACGTGGGGAT, the “relative binding free energy” value was -0.502 kJ/mol.

TGTGGCACGTGTGCTC: the “relative binding free energy” value is -0.502 kJ/mol.

As to CGTGTCACGTGTAGCG, the “relative binding free energy” value is 0.0418 kJ/mol.

Turning to AATGGCACGTGCTTGT, the “relative binding free energy” value is -0.711 kJ/mol.

Regarding CTAGGCACGTGTGTGG, the “relative binding free energy” value was -0.586 kJ/mol.

As for AGGGTCACGTGTATAG, the “relative binding free energy” value came out at 0.544 kJ/mol.

As to ATGGGCACGTGGTGCA, the “relative binding free energy” value was -0.628 kJ/mol.

Consider ATGATCACGTGAGCTT, for which the “relative binding free energy” value came to 1.63 kJ/mol.

Consider GGTCTCACGTGAGGTT, for which the “relative binding free energy” value is 1.42 kJ/mol.

Consider TGCGTCACGTGATATG, for which the “relative binding free energy” value is 0.669 kJ/mol.

As to GTCTTCACGTGTGTCG, the “relative binding free energy” value turned out to be 1.55 kJ/mol.

Take AAATGCACGTGCAGGG: the “relative binding free energy” value is -0.46 kJ/mol.

CGTAACACGTGTTTTT: the “relative binding free energy” value is -0.0837 kJ/mol.

In the case of TGGTTCACGTGGACTA, the “relative binding free energy” value came out at 1.13 kJ/mol.

Regarding GTTTACACGTGCGTGT, the “relative binding free energy” value was 0.251 kJ/mol.

In the case of CGGATCACGTGTATGG, the “relative binding free energy” value came to 0.0418 kJ/mol.

In the case of AGGGTCACGTGATATG, the “relative binding free energy” value was 0.46 kJ/mol.

Consider TTGAGCACGTGGTAGG, for which the “relative binding free energy” value is -0.418 kJ/mol.

With ATTGACACGTGGAAGG, the “relative binding free energy” value is 0.251 kJ/mol.

With CGGGTCACGTGCGTCG, the “relative binding free energy” value was 0.377 kJ/mol.

Regarding TTCAGCACGTGGATGT, the “relative binding free energy” value was determined as 0.126 kJ/mol.

As to TGTAACACGTGCGGTA, the “relative binding free energy” value was 0.293 kJ/mol.

In the case of TGCGACACGTGCGGTT, the “relative binding free energy” value was found to be 0.753 kJ/mol.

ATTATCACGTGGTGAG: the “relative binding free energy” value amounted to 0.586 kJ/mol.

Turning to TGCCGCACGTGCTGGT, the “relative binding free energy” value is -0.167 kJ/mol.

Consider GGACTCACGTGGTCGG, for which the “relative binding free energy” value was 1.34 kJ/mol.

On to GGTTGCACGTGCGTCA, for which the “relative binding free energy” value amounted to 0.0418 kJ/mol.

TTCGGCACGTGGTGTA: the “relative binding free energy” value is -0.711 kJ/mol.

On to GATAGCACGTGGTATT, for which the “relative binding free energy” value was -0.879 kJ/mol.

TGTTACACGTGGTTAT: the “relative binding free energy” value is 0.502 kJ/mol.

On to AACGTCACGTGGGGCG, for which the “relative binding free energy” value was -0.0418 kJ/mol.

AGTAGCACGTGAAATA: the “relative binding free energy” value was determined as 1.26 kJ/mol.

For the sequence TTTTTCACGTGTGAGG, the “relative binding free energy” value came to 1.34 kJ/mol.

GGATGCACGTGGGAAT: the “relative binding free energy” value was -0.377 kJ/mol.

On to AGTGCCACGTGGGCTT, for which the “relative binding free energy” value is -0.837 kJ/mol.

For the sequence GGGATCACGTGGTTTA, the “relative binding free energy” value was found to be 1.3 kJ/mol.

As to TTGATCACGTGGGAAT, the “relative binding free energy” value came out at 0.586 kJ/mol.

On to TGAGTCACGTGTAGTT, for which the “relative binding free energy” value came to 0.586 kJ/mol.

Regarding CGGGGCACGTGCAGGT, the “relative binding free energy” value was -0.544 kJ/mol.

Regarding GTATTCACGTGGGTAT, the “relative binding free energy” value stood at 1.26 kJ/mol.

TTATTCACGTGTGTGT: the “relative binding free energy” value came out at 0.962 kJ/mol.

Take AGGGACACGTGTAGGG: the “relative binding free energy” value is 0.251 kJ/mol.

Take AGAATCACGTGAAGTT: the “relative binding free energy” value was 1.92 kJ/mol.

Turning to TGGAACACGTGCGGAG, the “relative binding free energy” value was 0.544 kJ/mol.

With TGTATCACGTGGAAGT, the “relative binding free energy” value amounted to 0.795 kJ/mol.

Consider GTTGCCACGTGGTCGG, for which the “relative binding free energy” value is -0.628 kJ/mol.
